The full ranking holds about 2,300 sequences; the median of “median log2 fold change of GCK-ALFA target abundance (FLAG IP / Myc IP barcode read proportion)” is about 0.095, and the lowest 2% start at about -0.47. This is one part of the list.
B1: LC3A_127_202 (protein)
chain: SRRELLEEALELAEEALRALQRIPEEGEAALREARELLERLLELLAQLPELAEAAADAQQALAQLDQLPQLSPAEREEAIEHLLMIVDGIAIEVESALLR
B2: LC3A_28_1183 (protein)
chain: SALEENLKAAIAEAKKAAAAGEPAVITITVPGDADEEDIEKVIEALEEIAEILKDIKGSAIIIDLEKGVKQEHIDKLAEKADEIEKKYPNVTVILALEEE
B3: LC3A_free_8_2482 (protein)
chain: SSQETVDTVVKLLSKGEEELVKKAKELGKSRLDILELELLYGSVIATAISLSDASLEEIEKEIEEGLEDVLEKAKELGEEIAEIAEKHAKEVLEAIEKAK
B4: LC3A_132_287 (protein)
chain: GEEEKKRVVEKVKKIAEEAKKNIDNPEEVRKLLEELKKYLEEVKKTESPEVVRAAAETAAEELEELSELAEEKGKEDLALELDSLAIEAESWALEAEEAL
B5: LC3A_28_1125 (protein)
chain: SARREAWLAALAEAKERAERGEDVVLELTATGEDTEEDVDFLLEVLEEGAAYLSERGQSSILLDIDGSLPQELRDYLIDRADEIEARYPSVNIVIALEED
B6: LC3A_28_822 (protein)
chain: SEVEKRNEEALKEAKELAEKGEEKTITITVKSSDTPEDVELIAETIKKIAEILKPLKSATILIDLEEPISPESLKLLADTGEEVEKKYPNITVIIALPED
B7: LC3A_127_220 (protein)
chain: MLEELLELAEEAARLAWELVEDPSLDFEEALERIKELLKKALELAEKAGLPEEVLEDIKEALKLVEEAREADEEERKELLERAALLMDGVAIEVESLILK
B8: LC3A_3_1420 (protein)
chain: MEEELERALEELREAGWSEETLEALREVVEALLERGAEEEARRVLELVLENKDISSEDLLEVLREVLELLKTPGVSPEEAVERLEELLRIARNEQEIEEL
B9: LC3A_127_209 (protein)
chain: EKEKLLKEAEKLAQKALEALQKVPKEGEKALKEAQKLFEELIKVLEQLPELKEALEDAKQALEQLKQLPKLNEAEREEAIEHIEMIAEGILIDVELALLK
B10: LC3A_45_1941 (protein)
chain: MKKYRAVIDILFEGDDEELEELKEIAKKIAEKNGVELKIDEELNKKLNEQDKDEGYKYLRLELIGEDEEKVLDTADEIVDEMIKYTNGKVSAIISFEEIE
B11: LC3A_free_0_2125 (protein)
chain: HMVKGRVTIVAIEREPKHSAEEVREVLEKVAKEITEKYGAKVEVEVKTIDGRNVGTLTVEVEAESEEELLEIADEIEDLVEKAFKEAGIDAEIYTSVEFL
B12: LC3A_free_0_2111 (protein)
chain: KVTVVEVVAISDEPVSEEKREKLRKFAEELAEEISKKYNAETKVELKTVDGRTILTITIKSENLTIDEGIEIAREIADKIEEKFKELGIDATIYESVYVE
B13: LC3A_28_1196 (protein)
chain: SVADEVIEEIRRQAEEALREGDGAVIEVNIPSTLSHEGIKRIVAEIKREAERLKHLERVSIIINVESGVSQEDIDLIADTGEEIEKKYPNVTVIIALDED
B14: LC3A_17_553 (protein)
chain: EEALERALEELRKRVREILDSAPWVSEETRERVVRLAEEALREAAEADETEALGILLELQDEVFDLLEEAGAPSEDEALLVAGSVQDAAEEALRRIREAR
B15: LC3A_147_473 (protein)
chain: VKTIVDIDILTKDAEEEVIERIKEIVEELKKEGYKVELKIETEKLEDGTTFIDVTITIYAETKEEAEEAANKVIDKLEEMEEELKDKILGSIISVDIEEL
B16: LC3A_28_1004 (protein)
chain: SELDKNLKEAIEKAKKAAEEKKPVVITIKVPGTANEEDIERVIKAIEEIAEILKDIPGSAIVVDIDGTLKQEFRDRLIDKAEEVEKKYPNITVIIALDED
B17: LC3A_28_1185 (protein)
chain: SELEENLEKALEEAREAAERGEPAVITIKVPGDANEEDIEKVIKTLEEIAEILKDIPGSAIIIDLEKGVKQEHIDKLAEKGEEIEEKYPNVTVILALEEE
B18: LC3A_28_849 (protein)
chain: SAIDAELAAQKAKAEAAKAAGEEVLLEVTVTSETTLEDAEKISEGLEEIAEAAKDLPSLDIVVNFTEPVDQEVLDKIAETGDRLEKRYPHVNVVLALPED
B19: LC3A_28_783 (protein)
chain: SELEKNIEAAIKEAKAAKAAGKSQVITIKVPGTATEEDIEKVIAGLKEIAEILKGVKDQAIIIDVDADVAPEHIQKLADEADRIEKEYPNVTVIIALEEK
B20: LC3A_28_971 (protein)
chain: SELDENLEKALAEARAAAEAGEPPVIVLKVPGSDDPEDTEKVIKTLEEIAEILSGVEGAAIIIDIDGGVSPEHQNKIIDKAEEIEEKYPNVTVIIALEER
B21: LC3A_28_885 (protein)
chain: GSALKSAEEALEKVKKALEAGDKEPLVLEVDAPSEPEDVEKFIELLEEIAKEASKGIKVHIVVDISSDVSQENRDKIIDAGDEIEKKYPNVTVIFALPED
B22: LC3A_45_1967 (protein)
chain: MYKATLYLLVPRELAEKALAVMEEEVERLRREEGLEAEVLRERNEENLKRDQDTGEVLLEVEIIAPTKQEALDAADRIHDAVEEATGKPVAAIIEVEEVP
B23: LC3A_3_1495 (protein)
chain: MEELLKKVKEVLEKLGASPEQIKRVLEDAKKLLEKGYEKTVEKLIELLEKYKDLSPLDLTAAFLTTADEALEKNLSEEEAVEKAEEIFEDVAEIEALDEE
B24: LC3A_3_1755 (protein)
chain: MEEKLKEAREELKELGFSDEVIERALKVVEALLKKGFEEAVEVLIEELKELKDLPDEIILDMLDDILEKVETEDLNEEEVIEVIKEEARVARSESEIIEL
B25: LC3A_28_1063 (protein)
chain: SKVEAEIKKALAEAKEAVAAGEEALVTITIDDSDSDEDVEKKLKTMEEIAELTKTLPRTTILVDIDSSRKEEISKKVSEVGDKLEKKYPNVTVIIALSEE
B26: LC3A_3_1730 (protein)
chain: MEELLEKYRKRIESLGLSKEVQEKAMETIKLLLEKGLEEEVDLLLETLEKIKDADQEVILEGLEEIKELVETSKLPKEELAKKVKEEIKTLENDGEIIEL
B27: LC3A_28_1033 (protein)
chain: SALEAAADAALAEARAQFEAGEDAVVTLDVGDVDTETARAVVTAFLERLRALSAEHGGRKVSVVINYDGDQEGLDAIIDAAEAAEAADPNLTVIIAYADK
B28: LC3A_3_1789 (protein)
chain: GEERLERLLERLRAAGKSEETIAAVRRTGERLLELGYEEALETFIEEMERLIDAPDELLLDLAERVLEALETNDLSEEELRAYIEEEARLVRLESEIIEL
B29: LC3A_28_1295 (protein)
chain: SEIEKNLKEALAEAKKAKAEGKQVVITVKVPGDATQEEIELVIKGLEEIAKVLEDVPNQTIIIDVEAGVKQEHIDLLADRAEEIEKKYPNVTVIIALDED

Target: MAP1LC3A, Q9H492
Experiment: median log2 fold change of GCK-ALFA target abundance (FLAG IP / Myc IP barcode read proportion) (log2 ratio); each designed protein is fused to an ALFA-tag nanobody in HEK293 cells to bring the named protein to FLAG-tagged glucokinase (GCK); Myc marks an untargeted standard; higher = target protein stabilised (more abundant)
Conditions: target protein: 3xFLAG-MCP-GCK-ALFA reporter; HEK293 landing pad (RPLP)
In short: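 An ALFA-nanobody-fused binder library was recombined into HEK293 landing-pad cells and induced with 2 μg mL^−1 doxycycline. Cells were transfected with a plasmid expressing a FLAG-tagged target and a Myc-tagged standard. After 48 h, lysates underwent anti-FLAG and anti-Myc immunoprecipitation, and circular RNA barcodes were reverse transcribed, amplified and sequenced. Target abundance is the per-binder median log2 ratio of FLAG to Myc barcode read proportions. Barcodes needed ≥10^−7 proportion in both replicates, binders ≥3 barcodes per replicate, and a 10^−6 pseudocount was added; the two replicates were pooled.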

B1 and B2 are within 0.2 log units of each other in “median log2 fold change” value: 0.0531 for the first, -0.0581 for the second.

B3 and B4 are within 0.2 log units of each other in “median log2 fold change” value: 0.146 for the first, 0.0725 for the second.

Compared with B5, B6 is higher in “median log2 fold change” value: -0.312 for the first, 0.274 for the second.

First: B7
Second: B8
The “median log2 fold change” value of the first is lower: -0.0623 for the first, 0.3 for the second.

Compared with B9, B10 is lower in “median log2 fold change” value: 0.145 for the first, -0.0992 for the second.

B11 and B12 are within 0.2 log units of each other in “median log2 fold change” value: 0.025 for the first, -0.0422 for the second.

Compared with B13, B14 is lower in “median log2 fold change” value: 0.291 for the first, 0.0433 for the second.

B15 and B16 are within 0.2 log units of each other in “median log2 fold change” value: -0.0233 for the first, 0.152 for the second.

B17 and B18 are within 0.2 log units of each other in “median log2 fold change” value: 0.0727 for the first, -0.0347 for the second.

Compared with B19, B20 is lower in “median log2 fold change” value: 0.271 for the first, -0.0123 for the second.

Compared with B21, B22 is lower in “median log2 fold change” value: 0.179 for the first, -0.128 for the second.

B23 and B24 are within 0.2 log units of each other in “median log2 fold change” value: 0.247 for the first, 0.0697 for the second.

B25 and B26 are within 0.2 log units of each other in “median log2 fold change” value: 0.0338 for the first, 0.208 for the second.

Going from B27 to B28, the “median log2 fold change” value rises from -0.314 to 0.0655.

For B29, the “median log2 fold change” value was 0.184.

— the supplement of paper PMC12632987
